PubChem BioAssay AID1476 (National Center for Advancing Translational Sciences (NCATS), 2009)
The campaign covered roughly 200,000 compounds. About 4,500 (2.2%) were called active. The shares of active, inactive and inconclusive entries below differ from those in the screen. The call rests on the fitted dose curve; in most records, active means well fitted inhibition curve with a large enough effect; inconclusive means small, poorly fitted or top-dose-only effect, or effect the other way; inactive means flat fitted curve, though single readings scatter. Where the call is inconclusive, the potency comes from a doubtful curve fit.

biological target: Cruzipain (Trypanosoma cruzi) (UniProt P25779); experiment: qHTS Assay for Promiscuous and Specific Inhibitors of Cruzain (without detergent); settings: purified cruzain, Z-FR-AMC fluorescence, no detergent; further: nearly all actives have a fitted effect of over 40% in size;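 on max response, negative = inhibition: plate controls were enzyme without inhibitor for no effect and buffer without enzyme for full effect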
Sequence of UniProt P25779 (P25779 whole entry, looked up): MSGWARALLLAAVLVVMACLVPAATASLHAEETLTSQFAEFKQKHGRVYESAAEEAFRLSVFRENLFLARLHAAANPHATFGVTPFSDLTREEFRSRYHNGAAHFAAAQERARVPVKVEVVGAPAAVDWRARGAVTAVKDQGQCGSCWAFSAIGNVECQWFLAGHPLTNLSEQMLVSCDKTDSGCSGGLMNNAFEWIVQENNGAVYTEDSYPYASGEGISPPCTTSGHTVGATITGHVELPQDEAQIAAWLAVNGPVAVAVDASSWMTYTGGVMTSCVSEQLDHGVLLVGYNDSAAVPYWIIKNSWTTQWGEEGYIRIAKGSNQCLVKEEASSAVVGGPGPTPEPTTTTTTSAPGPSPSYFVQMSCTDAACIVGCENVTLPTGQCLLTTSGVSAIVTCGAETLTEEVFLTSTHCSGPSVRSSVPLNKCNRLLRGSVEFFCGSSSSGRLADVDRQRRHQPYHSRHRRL
Summary of the method: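 Purified cruzain at 1.5 nM, pre-incubated 15 min with compound at room temperature in 100 mM sodium acetate pH 5.5, 5 mM DTT, 0.00005% Triton X-100. Reaction started with 2 uM Z-FR-AMC; AMC fluorescence increase over 60 s gives rate.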
Potency means the concentration at half of the fitted maximal effect; tags describe the fitted curve by direction and shape.

Question: `O=C(CC(c1ccccc1)c1ccccc1)Nc1ccc2c(c1)OCCO2` was tested. Which Potency did it give?
Answer: The Potency was inconclusive: 31.6 µM [inhibitor, single point].

Question: `O=S(=O)(Nc1nc2ccccc2nc1N1CCN(c2ccccc2)CC1)c1ccc(F)cc1` was tested. Which Potency did it give?
Answer: The Potency was active: 31.6 µM.

Question: With `CCN(CC)C(=O)CSc1nnc([C@@H](N)Cc2ccccc2)o1` as the molecule, how does the Potency read?
Answer: The Potency was active: 25.1 µM.

Question: Which Potency does the source give for `Cc1ccc(/C=C2/C(=O)NC(=O)N(CCc3ccc(F)cc3)C2=O)s1` here?
Answer: The Potency was inconclusive: 39.8 µM [inhibitor, single point].

Question: `CCN(CC)c1ccc(-c2nc(-c3ccco3)no2)cc1[N+](=O)[O-]` was tested. Which Potency did it give?
Answer: Its Potency is active: 15.8 µM.

Question: `O=C1C2=C(Nc3ccccc3SC2c2ccco2)c2ccccc21` (stereo not given) was tested. Which Potency did it give?
Answer: The Potency was inconclusive: 31.6 µM [inhibitor, single point].

Question: Which Potency does the source give for `Cc1ccc(C)n1/N=C1/NC(=O)CS1` here?
Answer: The Potency was inconclusive: 31.6 µM [activator, single point].

Question: With `COc1cccc(/C=N/NC(=O)c2cc3cc([N+](=O)[O-])ccc3s2)c1O` as the molecule, how does the Potency read?
Answer: The Potency was active: 10 µM.

Question: How did the Potency turn out when `CCN1C(=O)C(Cc2nc3ccccc3c(=O)n2-c2ccc(OC)cc2)c2ccccc21` (stereo not given) was run?
Answer: The Potency was inconclusive: 39.8 µM [activator, single point].

Question: With `O=C(c1cc(-c2ccncc2)nc2ccccc12)N1CCN(S(=O)(=O)/C=C/c2ccccc2)CC1` as the molecule, how does the Potency read?
Answer: The Potency was inconclusive: 39.8 µM [activator, single point].

Question: With `COc1ccc(N2CC(NC(=O)COc3ccc4ccccc4c3)CC2=O)cc1OC` (stereo not given) as the molecule, how does the Potency read?
Answer: Its Potency is inconclusive: 31.6 µM [activator, single point].

Question: With `Cc1ccc(Nc2nc3c(s2)CCC3)c(C)c1` as the molecule, how does the Potency read?
Answer: The Potency was inconclusive: 31.6 µM [inhibitor, single point].

Question: With `c1ccc2c(c1)OCCOCCOCCOCCOc1ccccc1OCCOCCOCCO2` as the molecule, how does the Potency read?
Answer: The Potency was inconclusive: 31.6 µM [activator, single point].

Question: How did the Potency turn out when `Cc1ccc(C(=O)[C@@H]2[C@H]3C4COC(O4)C(=O)[C@@H]3[C@H]3C=Cc4ccccc4N32)cc1` (stereo not given in full) was run?
Answer: Its Potency is inconclusive: 15.8 µM [activator, single point].

Question: How did the max response, negative = inhibition turn out when `Cc1ccc(C)c(CNC(=O)c2cc3ccccn3n2)c1` was run?
Answer: Its max response, negative = inhibition is inactive: -9.01%.

Question: Which Potency does the source give for `COc1cccc(C(=O)O/N=C(\N)c2ccncc2)c1OC` here?
Answer: Its Potency is inconclusive: 0.631 µM [activator, partial curve].

Question: `CC(=O)Nc1ccc(NC(=O)CCS(=O)(=O)c2ccc3c(c2)CC(=O)N3C)cc1` was tested. Which max response, negative = inhibition did it give?
Answer: Its max response, negative = inhibition is inactive: 19.1%.

Question: Which Potency does the source give for `Cc1ccccc1N(C(=O)c1cccs1)c1nc2ccccc2s1` here?
Answer: The Potency was inconclusive: 39.8 µM [inhibitor, single point].

Question: Which Potency does the source give for `Cc1ccsc1/C=N/Nc1ncc(Cl)cc1Cl` here?
Answer: The Potency was inconclusive: 31.6 µM [inhibitor, single point].

Question: With `O=C(CSc1nc(-c2ccc(F)cc2)cc(C(F)(F)F)n1)NCc1ccco1` as the molecule, how does the Potency read?
Answer: The Potency was inconclusive: 25.1 µM [inhibitor, single point].

Question: With `O=P(NS(=O)(=O)c1ccc(Cl)cc1)(Oc1ccccc1)Oc1ccccc1` as the molecule, how does the Potency read?
Answer: The Potency was inconclusive: 31.6 µM [activator, single point].

Question: Which Potency does the source give for `CC1=Nc2cc(C(=O)NCCc3ccc(Cl)cc3)ccc2Sc2c(C)ccc(C)c21` here?
Answer: Its Potency is active: 25.1 µM.

Question: For `Cc1nnc2n(Cc3ccccc3)c(=O)c3c4c(sc3n12)COC(C(C)C)C4` (stereo not given), which Potency is on record?
Answer: Its Potency is inconclusive: 31.6 µM [activator, single point].

Question: For `COc1ccc(-c2csc(NC(=O)COC(=O)c3ccc(Br)o3)n2)cc1`, which Potency is on record?
Answer: The Potency was inconclusive: 31.6 µM [inhibitor, single point].

Question: Which max response, negative = inhibition does the source give for `COc1ccccc1C(=O)OCc1cc(=O)n2nc(C(C)C)sc2n1` here?
Answer: The max response, negative = inhibition was inactive: -4.54%.

Question: With `CCOC(=O)CNC(=O)O[C@H]1C(=O)c2cc(OC)ccc2O[C@@H]1c1ccc(OC)c(Br)c1` as the molecule, how does the Potency read?
Answer: Its Potency is active: 12.6 µM.

Question: `Cc1ccc(C)c(NS(=O)(=O)c2cc(C(=O)NCCSC3CCCCC3)ccc2C)c1` was tested. Which Potency did it give?
Answer: Its Potency is inconclusive: 20 µM [inhibitor, single point].

Question: With `O=C(COc1ccc(/C=N/NC(=O)c2ccccc2O)cc1)Nc1ccc([N+](=O)[O-])cc1` as the molecule, how does the Potency read?
Answer: The Potency was inconclusive: 31.6 µM [inhibitor, single point].

Question: Which Potency does the source give for `Cc1ccc(NC(=O)NNS(=O)(=O)c2ccc(Br)cc2)cc1` here?
Answer: Its Potency is inconclusive: 31.6 µM [inhibitor, single point].

Question: Which Potency does the source give for `CCCOc1ccc(C2C(C(=O)OC)=CN(CCOC)C=C2C(=O)OC)cc1` here?
Answer: The Potency was inconclusive: 25.1 µM [activator, partial curve].

Question: How did the max response, negative = inhibition turn out when `Cc1ccc2c(=O)c(C(=O)c3cccc(Cl)c3)cn(CC(=O)Nc3ccccc3C(F)(F)F)c2n1` was run?
Answer: Its max response, negative = inhibition is inactive: 2.02%.

Question: How did the Potency turn out when `COc1ccc(/C=C/C(=O)Nc2sc(Cc3ccccc3)c(C)c2C(N)=O)cc1` was run?
Answer: Its Potency is active: 15.8 µM.

Question: `CC1=C(C(=O)OC2CCCCCC2)C(c2cccc(Cl)c2)CC(=O)N1` (stereo not given) was tested. Which max response, negative = inhibition did it give?
Answer: Its max response, negative = inhibition is inactive: -12.4%.

Question: With `CCn1c(C)cc(/C=C2/NC(=O)N(Cc3ccccc3F)C2=O)c1C` as the molecule, how does the Potency read?
Answer: The Potency was inconclusive: 31.6 µM [inhibitor, single point].

Question: For `O=S(=O)(c1cccc(C(F)(F)F)c1)N1CCC(c2cc(-c3cccc4ccccc34)n[nH]2)CC1`, which Potency is on record?
Answer: Its Potency is inconclusive: 12.6 µM [inhibitor, single point].

Question: With `CCOc1ccc2c(c1)n([O-])c1c([n+]2=O)CCCC1` as the molecule, how does the max response, negative = inhibition read?
Answer: The max response, negative = inhibition was inactive: -8.89%.

Question: `ClC1=C(Cl)C2(Cl)C3C4CC(C5OC45)C3C1(Cl)C2(Cl)Cl` (stereo not given) was tested. Which Potency did it give?
Answer: The Potency was active: 1.58 µM.

Question: For `O=C1c2cccc3cccc(c23)C(=O)N1/N=C/c1ccc(O)cc1O`, which Potency is on record?
Answer: Its Potency is inconclusive: 39.8 µM [inhibitor, single point].

Question: Which max response, negative = inhibition does the source give for `COCCNC(=O)c1ccc2c(c1)N=C(C)c1cc(C)ccc1S2` here?
Answer: The max response, negative = inhibition was inactive: 12.7%.

Question: How did the Potency turn out when `NS(=O)(=O)c1ccc2nc(NC(=O)COc3ccc(Cl)cc3Cl)sc2c1` was run?
Answer: The Potency was inconclusive: 39.8 µM [activator, single point].

Question: With `Cc1cccc(C2=NN(c3ccccc3)[C@H](CO)[C@H]2c2ccccc2)c1` as the molecule, how does the Potency read?
Answer: Its Potency is inconclusive: 35.5 µM [inhibitor, single point].

Question: Which Potency does the source give for `CC(C)(C)c1ccc(C(=O)OCC(=O)Nc2sc3c(c2C#N)CCC3)cc1` here?
Answer: The Potency was inconclusive: 39.8 µM [inhibitor, single point].

Question: `COc1ccc(CC(=O)N2CCc3cc(OC)c(OC)cc3C2COc2ccc(F)cc2)cc1OC` (stereo not given) was tested. Which Potency did it give?
Answer: The Potency was inconclusive: 39.8 µM [activator, single point].

Question: With `CC(=O)c1ccc(NC(=O)c2ccccc2Sc2ncnc3sc(C)c(C)c23)cc1` as the molecule, how does the Potency read?
Answer: Its Potency is inconclusive: 39.8 µM [activator, single point].

Question: With `O=S(=O)(Nc1ccc(S(=O)(=O)Nc2cccc3ccccc23)cc1)c1ccccc1` as the molecule, how does the Potency read?
Answer: Its Potency is inconclusive: 31.6 µM [activator, single point].

Question: For `Cc1nn(C)cc1C(C(=O)NC1CCCCC1)N(C(=O)c1cnccn1)c1ccc(Oc2ccccc2)cc1` (stereo not given), which Potency is on record?
Answer: The Potency was inconclusive: 39.8 µM [activator, single point].

Question: Which Potency does the source give for `COC(=O)c1cn(CC(=O)NC2CCCCC2)c2ccccc12` here?
Answer: The Potency was inconclusive: 31.6 µM [inhibitor, single point].

Question: Which Potency does the source give for `COc1cc(-c2nc(-c3cccc(C(F)(F)F)c3)no2)cc(OC)c1OC` here?
Answer: Its Potency is inconclusive: 20 µM [activator, partial curve].

Question: Which Potency does the source give for `COc1ccccc1-n1cnc2c(c1=O)c1nc3ccccc3nc1n2-c1ccc(C)cc1` here?
Answer: Its Potency is inconclusive: 20 µM [activator, partial curve].

Question: For `CCCCn1c(SCC(=O)c2ccc3c(c2)OCCO3)nnc1-c1ccco1`, which Potency is on record?
Answer: Its Potency is inconclusive: 31.6 µM [activator, single point].

Question: How did the max response, negative = inhibition turn out when `CCOC(=O)c1c(Oc2ccc(C(C)=O)cc2)nnc(-c2ccccc2)c1-c1ccccc1` was run?
Answer: The max response, negative = inhibition was inactive: -10.2%.

Question: How did the Potency turn out when `Cc1c(C(=O)Nc2ccccc2Cl)oc2ccc(S(=O)(=O)N3CCC4(CC3)OCCO4)cc12` was run?
Answer: Its Potency is inconclusive: 12.6 µM [activator, partial curve].

Question: With `C=C(C)CSc1nnc(-c2cccc(S(=O)(=O)N(C)C)c2)n1-c1cc(OC)ccc1OC` as the molecule, how does the Potency read?
Answer: The Potency was inconclusive: 31.6 µM [activator, single point].

Question: With `COCCCNC(=O)C1CCN(c2cc(C)nc3c(-c4ccc(Cl)cc4)c(C)nn23)CC1` as the molecule, how does the max response, negative = inhibition read?
Answer: The max response, negative = inhibition was inactive: 9.22%.

Question: For `CC1CN(S(=O)(=O)c2ccc(C(=O)Nc3sccc3C(N)=O)cc2)CC(C)O1` (stereo not given), which Potency is on record?
Answer: Its Potency is inconclusive: 39.8 µM [activator, single point].

Question: With `O=C1C2C3C=CC(C4CC34)C2C(=O)N1/N=C/c1ccc(-c2ccccc2[N+](=O)[O-])o1` (stereo not given) as the molecule, how does the Potency read?
Answer: Its Potency is inconclusive: 39.8 µM [inhibitor, single point].

Question: With `O=C(N=Nc1c(O)[nH]c2ccc(Br)cc12)c1cc(-c2cccc3ccccc23)n[nH]1` as the molecule, how does the Potency read?
Answer: The Potency was active: 10 µM.

Question: `O=C(NCc1ccco1)c1cnccn1` was tested. Which max response, negative = inhibition did it give?
Answer: The max response, negative = inhibition was inactive: -2.09%.

Question: With `Cc1ccc(OCCCSc2nc(-c3ccc(C(C)(C)C)cc3)nc3cc(=O)[nH]n23)cc1C` as the molecule, how does the Potency read?
Answer: The Potency was inconclusive: 3.16 µM [inhibitor, full curve].

Question: Which Potency does the source give for `O=C(Oc1ccccc1C(=O)Nc1ccccc1)c1ccc(Br)c([N+](=O)[O-])c1` here?
Answer: Its Potency is inconclusive: 39.8 µM [inhibitor, single point].

Question: Which max response, negative = inhibition does the source give for `CC(=O)[C@H]1CC[C@@H]2[C@H]3CC=C4C[C@@H](O)CC[C@]4(C)[C@H]3CC[C@]12C` here?
Answer: The max response, negative = inhibition was inactive: 3.9%.

Question: With `Cc1cccc(COc2ccccc2/C=N/Nc2ccc([N+](=O)[O-])cc2)c1` as the molecule, how does the Potency read?
Answer: Its Potency is active: 25.1 µM.

Question: Which Potency does the source give for `COc1cc(Cl)c(C)cc1NC(=O)c1cnc(N2CCOCC2)c2ccccc12` here?
Answer: The Potency was inconclusive: 31.6 µM [activator, single point].

Question: Which Potency does the source give for `CCCc1nn(C)c2c(=O)[nH]c(-c3ccccc3OCC)nc12` here?
Answer: Its Potency is inconclusive: 39.8 µM [activator, single point].

Question: Which Potency does the source give for `CCCCN(CC)C(=O)c1cc2c(=O)n3cccc(C)c3nc2s1` here?
Answer: Its Potency is inconclusive: 39.8 µM [activator, single point].
